Article PMC11676169
These are yes or no findings as the source states them, for the method shown. In cells and extracts the contact can be indirect. Some entries that bind do so weakly or less than the wild type. For some of these results: Where a sequence is shown, tags or fusion partners need not be part of it. Blank lines part the entries; values can stand above or below the molecule they belong to.

Chains of the proteins cited; added tags and fusions are not shown. Lines headed by an entry give the natural chain unless they say otherwise; changes in a name come on top.
UniProt P12956: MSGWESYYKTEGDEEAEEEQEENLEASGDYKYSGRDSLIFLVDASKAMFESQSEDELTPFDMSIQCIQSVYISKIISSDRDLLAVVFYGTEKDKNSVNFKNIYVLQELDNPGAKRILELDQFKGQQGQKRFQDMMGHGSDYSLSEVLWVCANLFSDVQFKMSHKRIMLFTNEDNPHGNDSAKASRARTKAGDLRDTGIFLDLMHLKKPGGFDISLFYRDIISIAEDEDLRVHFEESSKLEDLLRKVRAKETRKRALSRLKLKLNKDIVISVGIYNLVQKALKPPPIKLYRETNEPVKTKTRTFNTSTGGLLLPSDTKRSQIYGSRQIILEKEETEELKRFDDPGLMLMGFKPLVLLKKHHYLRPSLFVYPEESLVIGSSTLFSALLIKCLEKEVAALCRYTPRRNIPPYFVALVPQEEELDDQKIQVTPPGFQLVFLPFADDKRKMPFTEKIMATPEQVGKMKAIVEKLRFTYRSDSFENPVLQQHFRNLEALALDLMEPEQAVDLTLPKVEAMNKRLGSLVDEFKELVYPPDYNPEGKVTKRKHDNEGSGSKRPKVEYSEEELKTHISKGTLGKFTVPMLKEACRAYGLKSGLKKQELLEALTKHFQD
UniProt P13010: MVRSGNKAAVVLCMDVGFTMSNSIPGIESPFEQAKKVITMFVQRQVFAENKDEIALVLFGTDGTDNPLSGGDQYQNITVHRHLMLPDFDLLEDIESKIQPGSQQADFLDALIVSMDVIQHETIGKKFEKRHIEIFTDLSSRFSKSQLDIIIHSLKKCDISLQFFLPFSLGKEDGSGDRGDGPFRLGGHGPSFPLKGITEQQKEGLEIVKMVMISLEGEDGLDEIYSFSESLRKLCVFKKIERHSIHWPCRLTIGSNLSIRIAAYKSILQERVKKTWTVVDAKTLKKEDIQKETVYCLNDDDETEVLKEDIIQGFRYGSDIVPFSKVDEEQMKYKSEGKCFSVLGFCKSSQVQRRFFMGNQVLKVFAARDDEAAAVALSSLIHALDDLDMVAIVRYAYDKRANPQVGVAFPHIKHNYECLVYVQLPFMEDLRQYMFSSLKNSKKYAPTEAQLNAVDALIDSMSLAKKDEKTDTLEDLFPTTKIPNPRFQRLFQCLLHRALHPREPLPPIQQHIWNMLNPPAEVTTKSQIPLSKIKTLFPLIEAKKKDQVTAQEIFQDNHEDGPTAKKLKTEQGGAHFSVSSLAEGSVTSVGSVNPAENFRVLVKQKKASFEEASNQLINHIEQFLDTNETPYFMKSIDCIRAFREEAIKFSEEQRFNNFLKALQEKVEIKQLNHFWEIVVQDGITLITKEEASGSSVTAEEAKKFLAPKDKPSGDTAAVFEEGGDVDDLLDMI
UniProt P78527: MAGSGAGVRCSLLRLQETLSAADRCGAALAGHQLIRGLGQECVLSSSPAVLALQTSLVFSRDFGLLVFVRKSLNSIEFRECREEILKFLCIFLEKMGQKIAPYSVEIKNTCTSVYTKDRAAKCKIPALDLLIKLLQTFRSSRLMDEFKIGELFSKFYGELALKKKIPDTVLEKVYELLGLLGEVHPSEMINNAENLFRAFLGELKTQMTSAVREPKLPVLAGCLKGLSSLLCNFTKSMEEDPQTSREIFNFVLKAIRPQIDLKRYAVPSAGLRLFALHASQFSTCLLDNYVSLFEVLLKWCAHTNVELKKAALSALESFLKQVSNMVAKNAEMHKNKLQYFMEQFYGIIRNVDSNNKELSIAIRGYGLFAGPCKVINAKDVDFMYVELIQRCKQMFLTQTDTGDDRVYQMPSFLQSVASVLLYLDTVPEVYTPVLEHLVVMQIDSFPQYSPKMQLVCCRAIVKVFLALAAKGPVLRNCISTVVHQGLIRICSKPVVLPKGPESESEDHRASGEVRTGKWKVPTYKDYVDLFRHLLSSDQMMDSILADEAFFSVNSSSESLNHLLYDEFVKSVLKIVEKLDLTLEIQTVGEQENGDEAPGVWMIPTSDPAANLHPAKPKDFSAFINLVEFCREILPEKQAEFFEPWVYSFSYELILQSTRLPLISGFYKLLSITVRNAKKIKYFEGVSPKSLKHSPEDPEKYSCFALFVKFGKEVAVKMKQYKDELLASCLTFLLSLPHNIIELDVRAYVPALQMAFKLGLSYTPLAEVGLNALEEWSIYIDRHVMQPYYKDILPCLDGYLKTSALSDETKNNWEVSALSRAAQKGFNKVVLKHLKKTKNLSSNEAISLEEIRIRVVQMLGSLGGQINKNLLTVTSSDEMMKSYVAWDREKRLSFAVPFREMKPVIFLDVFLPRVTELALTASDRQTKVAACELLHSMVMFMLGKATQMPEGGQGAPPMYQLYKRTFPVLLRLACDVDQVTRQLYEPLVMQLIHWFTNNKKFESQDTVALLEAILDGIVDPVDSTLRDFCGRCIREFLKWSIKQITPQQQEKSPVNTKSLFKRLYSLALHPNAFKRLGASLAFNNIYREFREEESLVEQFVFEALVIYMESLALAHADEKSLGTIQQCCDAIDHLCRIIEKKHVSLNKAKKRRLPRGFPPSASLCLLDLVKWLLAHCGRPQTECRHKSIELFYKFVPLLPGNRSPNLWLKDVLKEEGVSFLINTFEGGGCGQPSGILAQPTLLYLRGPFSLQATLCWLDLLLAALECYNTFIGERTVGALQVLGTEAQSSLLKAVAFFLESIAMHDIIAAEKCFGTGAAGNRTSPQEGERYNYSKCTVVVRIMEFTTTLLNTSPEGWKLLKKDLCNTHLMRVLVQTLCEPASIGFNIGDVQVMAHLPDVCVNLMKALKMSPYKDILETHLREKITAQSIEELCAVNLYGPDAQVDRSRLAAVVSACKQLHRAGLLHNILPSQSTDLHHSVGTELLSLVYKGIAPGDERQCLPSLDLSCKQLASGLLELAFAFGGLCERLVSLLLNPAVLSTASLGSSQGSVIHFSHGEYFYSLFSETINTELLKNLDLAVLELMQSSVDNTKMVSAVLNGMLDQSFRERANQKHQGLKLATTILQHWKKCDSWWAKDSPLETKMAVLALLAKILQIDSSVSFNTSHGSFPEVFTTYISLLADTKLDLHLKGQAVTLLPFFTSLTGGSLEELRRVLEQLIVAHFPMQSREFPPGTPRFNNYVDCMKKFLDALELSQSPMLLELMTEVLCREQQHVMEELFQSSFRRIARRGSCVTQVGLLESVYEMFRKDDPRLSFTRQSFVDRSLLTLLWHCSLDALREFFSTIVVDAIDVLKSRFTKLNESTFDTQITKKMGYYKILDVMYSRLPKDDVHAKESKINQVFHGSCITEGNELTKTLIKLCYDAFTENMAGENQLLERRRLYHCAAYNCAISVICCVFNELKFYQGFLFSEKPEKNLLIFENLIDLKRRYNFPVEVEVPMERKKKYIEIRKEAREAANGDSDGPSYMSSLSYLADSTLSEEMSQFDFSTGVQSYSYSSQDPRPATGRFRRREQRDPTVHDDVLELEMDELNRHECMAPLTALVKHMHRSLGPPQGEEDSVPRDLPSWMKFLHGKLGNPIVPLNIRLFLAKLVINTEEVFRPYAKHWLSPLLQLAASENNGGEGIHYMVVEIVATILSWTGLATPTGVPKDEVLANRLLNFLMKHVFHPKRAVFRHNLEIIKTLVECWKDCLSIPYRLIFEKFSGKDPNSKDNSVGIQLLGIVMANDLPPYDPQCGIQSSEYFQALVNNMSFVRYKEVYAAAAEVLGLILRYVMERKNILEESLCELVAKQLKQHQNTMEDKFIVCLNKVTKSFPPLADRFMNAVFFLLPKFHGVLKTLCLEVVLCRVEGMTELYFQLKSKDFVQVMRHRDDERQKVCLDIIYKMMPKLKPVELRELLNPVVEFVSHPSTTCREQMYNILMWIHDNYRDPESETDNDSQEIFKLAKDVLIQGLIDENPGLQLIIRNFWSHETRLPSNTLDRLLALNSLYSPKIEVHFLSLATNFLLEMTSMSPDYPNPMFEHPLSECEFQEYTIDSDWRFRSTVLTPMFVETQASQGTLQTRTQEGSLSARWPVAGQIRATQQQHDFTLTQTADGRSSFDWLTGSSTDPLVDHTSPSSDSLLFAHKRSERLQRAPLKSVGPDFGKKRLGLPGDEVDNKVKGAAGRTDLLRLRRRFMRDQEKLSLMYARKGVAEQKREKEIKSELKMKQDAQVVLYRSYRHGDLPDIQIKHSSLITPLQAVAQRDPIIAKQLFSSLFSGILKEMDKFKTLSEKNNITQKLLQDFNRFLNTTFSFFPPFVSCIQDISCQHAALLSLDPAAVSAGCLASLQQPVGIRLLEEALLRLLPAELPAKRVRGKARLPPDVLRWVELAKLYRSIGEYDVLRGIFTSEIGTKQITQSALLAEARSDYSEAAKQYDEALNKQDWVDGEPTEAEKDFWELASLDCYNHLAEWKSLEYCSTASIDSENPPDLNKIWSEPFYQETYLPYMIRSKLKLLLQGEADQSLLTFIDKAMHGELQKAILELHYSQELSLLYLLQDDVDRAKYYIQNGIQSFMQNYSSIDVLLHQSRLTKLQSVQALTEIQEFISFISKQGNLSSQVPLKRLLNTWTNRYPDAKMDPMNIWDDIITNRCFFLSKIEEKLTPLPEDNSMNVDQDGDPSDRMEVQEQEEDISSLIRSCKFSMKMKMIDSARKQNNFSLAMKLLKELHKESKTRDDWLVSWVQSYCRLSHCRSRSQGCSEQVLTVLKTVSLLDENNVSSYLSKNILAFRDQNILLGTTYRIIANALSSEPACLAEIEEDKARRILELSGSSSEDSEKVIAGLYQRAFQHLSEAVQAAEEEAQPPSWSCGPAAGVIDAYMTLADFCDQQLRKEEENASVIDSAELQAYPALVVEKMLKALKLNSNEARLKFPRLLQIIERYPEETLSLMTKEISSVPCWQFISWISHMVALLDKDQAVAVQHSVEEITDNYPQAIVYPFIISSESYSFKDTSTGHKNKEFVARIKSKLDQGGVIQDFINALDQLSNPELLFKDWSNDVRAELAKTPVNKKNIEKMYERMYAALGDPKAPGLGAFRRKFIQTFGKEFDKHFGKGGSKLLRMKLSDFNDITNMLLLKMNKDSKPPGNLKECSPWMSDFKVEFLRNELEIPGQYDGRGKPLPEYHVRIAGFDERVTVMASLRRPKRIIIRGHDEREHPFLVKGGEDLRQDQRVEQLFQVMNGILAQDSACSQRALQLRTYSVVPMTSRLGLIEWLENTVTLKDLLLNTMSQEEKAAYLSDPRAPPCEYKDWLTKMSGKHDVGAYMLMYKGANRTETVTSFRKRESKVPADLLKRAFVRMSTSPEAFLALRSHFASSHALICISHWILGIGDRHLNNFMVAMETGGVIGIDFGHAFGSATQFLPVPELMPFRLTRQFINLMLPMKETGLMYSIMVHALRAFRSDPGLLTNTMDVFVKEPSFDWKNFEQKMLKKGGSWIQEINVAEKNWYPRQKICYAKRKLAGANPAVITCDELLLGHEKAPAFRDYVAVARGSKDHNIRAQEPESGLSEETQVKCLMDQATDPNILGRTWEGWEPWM

What was measured:
[1] = target: T1, endogenously expressed BCAT1 in CCRF-CEM T-ALL cells (human (endogenous in CCRF-CEM)) (UniProt P54687); assay: co-IP; endogenous proteins, CCRF-CEM cells lysed in NETN buffer; IP with mouse anti-BCAT1 antibody or irrelevant mouse Ig, TrueBlot anti-mouse Ig beads; immunoblot
T1 sequence: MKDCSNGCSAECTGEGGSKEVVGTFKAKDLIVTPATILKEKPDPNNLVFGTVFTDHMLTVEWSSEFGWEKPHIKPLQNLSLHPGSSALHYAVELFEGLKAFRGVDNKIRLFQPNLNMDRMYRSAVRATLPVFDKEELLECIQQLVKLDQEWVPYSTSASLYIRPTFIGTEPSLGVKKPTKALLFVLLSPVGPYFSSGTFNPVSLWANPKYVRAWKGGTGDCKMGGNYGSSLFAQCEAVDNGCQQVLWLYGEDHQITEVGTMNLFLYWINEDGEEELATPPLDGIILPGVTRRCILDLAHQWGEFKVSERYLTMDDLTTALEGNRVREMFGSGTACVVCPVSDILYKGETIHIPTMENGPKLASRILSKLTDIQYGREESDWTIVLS

[2] = target: T2, epitope-tagged BCAT1 (BCAT1 myc/DDK), expressed in HEK 293T cells (UniProt P54687); assay: co-IP; HEK 293T stably expressing BCAT1 myc/DDK, transfected with GFP-KU70 or GFP-KU80; NETN lysis buffer (150 mM NaCl, 0.5% NP-40); anti-c-Myc beads overnight at 4 °C; immunoblot anti-BCAT1 and anti-GFP
T2 sequence: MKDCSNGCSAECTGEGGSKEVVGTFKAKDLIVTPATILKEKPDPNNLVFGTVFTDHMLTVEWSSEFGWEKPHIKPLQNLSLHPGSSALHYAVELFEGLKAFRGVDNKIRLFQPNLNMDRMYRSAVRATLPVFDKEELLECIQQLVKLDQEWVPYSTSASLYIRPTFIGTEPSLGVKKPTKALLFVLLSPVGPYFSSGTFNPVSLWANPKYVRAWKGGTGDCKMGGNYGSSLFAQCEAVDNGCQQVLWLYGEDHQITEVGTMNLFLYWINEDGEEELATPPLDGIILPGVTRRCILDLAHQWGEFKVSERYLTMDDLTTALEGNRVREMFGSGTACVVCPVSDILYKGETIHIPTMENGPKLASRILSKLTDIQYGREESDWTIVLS

[3] = target: T2, epitope-tagged BCAT1 (BCAT1 myc/DDK), expressed in HEK 293T cells; assay: co-IP; HEK 293T stably expressing BCAT1 myc/DDK, transfected with HA-tagged XRCC6 or XRCC5 full length or truncation mutants; modified NETN lysis buffer (150 mM NaCl, 1% Triton-X); anti-FLAG beads overnight at 4 °C; immunoblot anti-HA
[4] = target: T3, double-tagged BCAT1 (BCAT1 myc-DDK), stably expressed in CUTLL1 T-ALL cells (UniProt P54687); assay: co-IP; CUTLL1 cells expressing BCAT1 myc/DDK; anti-FLAG M2 beads overnight, washes in modified NETN buffer, elution with FLAG peptide; immunoblot for BCAT1, KU70 and KU80
T3 sequence: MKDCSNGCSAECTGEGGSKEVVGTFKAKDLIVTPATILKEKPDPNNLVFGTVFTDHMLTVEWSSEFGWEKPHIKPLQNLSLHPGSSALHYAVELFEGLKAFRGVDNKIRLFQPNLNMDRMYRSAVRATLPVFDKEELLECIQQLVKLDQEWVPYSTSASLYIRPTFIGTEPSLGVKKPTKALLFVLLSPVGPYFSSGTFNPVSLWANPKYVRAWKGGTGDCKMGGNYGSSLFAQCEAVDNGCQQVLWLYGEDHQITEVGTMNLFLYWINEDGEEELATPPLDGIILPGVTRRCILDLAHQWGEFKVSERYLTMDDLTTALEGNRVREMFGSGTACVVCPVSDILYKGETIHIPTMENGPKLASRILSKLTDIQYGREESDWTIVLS

[5] = target: T1, endogenously expressed BCAT1 in CCRF-CEM T-ALL cells (human (endogenous in CCRF-CEM)); assay: proximity ligation; fixed and permeabilised T-ALL cells, untreated or treated with etoposide (1 µM) for 24 h; rabbit anti-KU70 and mouse anti-BCAT1 primary antibodies, Duolink
[6] = target: HA-tagged KU70 full length (pcDNA-HAXRCC6, 1-609) (UniProt P12956); assay: co-IP; HEK 293T co-transfected with full-length HA-XRCC6 or HA-XRCC5 and myc-DDK-tagged BCAT1 deletion mutants; modified NETN lysis buffer; anti-HA beads overnight at 4 °C; immunoblot
[7] = target: HA-tagged KU80 full-length protein (pLenti-HAXRCC5, 1-732) (UniProt P13010); assay: as above
[8] = target: GFP/FLAG-KU80 (pEGFP-C1-FLAG-Ku80) (UniProt P13010); assay: co-IP; HEK 293T stably expressing BCAT1 myc/DDK, transfected with GFP-KU70 or GFP-KU80; NETN lysis buffer (150 mM NaCl, 0.5% NP-40); GFP-Trap agarose overnight at 4 °C; immunoblot anti-BCAT1, anti-Flag and anti-GFP
[9] = target: GFP/FLAG-KU70 (pEGFP-C1-FLAG-Ku70) (UniProt P12956); assay: as above

Molecule: GFP/FLAG-KU70 (pEGFP-C1-FLAG-Ku70) (from UniProt P12956 1-609)
- binding [2]: binds

Molecule: GFP/FLAG-KU80 (pEGFP-C1-FLAG-Ku80) (from UniProt P13010 1-732)
- binding [2]: binds

Molecule: HA-tagged KU80 N-terminal domain (aa 1-240) (from UniProt P13010 1-240) (domain or fragment)
- binding [3]: binds

Molecule: KU70 (XRCC6), endogenous in CUTLL1 cells (from UniProt P12956 1-609)
- binding [4]: binds

Molecule: KU80 (XRCC5), endogenous in CUTLL1 cells (from UniProt P13010 1-732)
- binding [4]: binds

B1: myc-DDK-tagged C-terminal BCAT1 (aa 198-373) (domain or fragment, UniProt P54687 198-373)
chain: TFNPVSLWANPKYVRAWKGGTGDCKMGGNYGSSLFAQCEAVDNGCQQVLWLYGEDHQITEVGTMNLFLYWINEDGEEELATPPLDGIILPGVTRRCILDLAHQWGEFKVSERYLTMDDLTTALEGNRVREMFGSGTACVVCPVSDILYKGETIHIPTMENGPKLASRILSKLTDIQ
- binding [6]: no binding
- binding [7]: no binding

B2: myc-DDK-tagged BCAT1 aminotransferase IV (AT IV) domain (aa 94-343) (domain or fragment, UniProt P54687 94-343)
chain: LFEGLKAFRGVDNKIRLFQPNLNMDRMYRSAVRATLPVFDKEELLECIQQLVKLDQEWVPYSTSASLYIRPTFIGTEPSLGVKKPTKALLFVLLSPVGPYFSSGTFNPVSLWANPKYVRAWKGGTGDCKMGGNYGSSLFAQCEAVDNGCQQVLWLYGEDHQITEVGTMNLFLYWINEDGEEELATPPLDGIILPGVTRRCILDLAHQWGEFKVSERYLTMDDLTTALEGNRVREMFGSGTACVVCPVSDI
- binding [6]: binds
- binding [7]: binds

B3: epitope-tagged BCAT1 (BCAT1 myc/DDK), expressed in HEK 293T cells (enzyme, UniProt P54687 1-386)
chain: MKDCSNGCSAECTGEGGSKEVVGTFKAKDLIVTPATILKEKPDPNNLVFGTVFTDHMLTVEWSSEFGWEKPHIKPLQNLSLHPGSSALHYAVELFEGLKAFRGVDNKIRLFQPNLNMDRMYRSAVRATLPVFDKEELLECIQQLVKLDQEWVPYSTSASLYIRPTFIGTEPSLGVKKPTKALLFVLLSPVGPYFSSGTFNPVSLWANPKYVRAWKGGTGDCKMGGNYGSSLFAQCEAVDNGCQQVLWLYGEDHQITEVGTMNLFLYWINEDGEEELATPPLDGIILPGVTRRCILDLAHQWGEFKVSERYLTMDDLTTALEGNRVREMFGSGTACVVCPVSDILYKGETIHIPTMENGPKLASRILSKLTDIQYGREESDWTIVLS
- binding [8]: binds
- binding [9]: binds

B4: myc-DDK-tagged N-terminal BCAT1 (aa 1-197) (domain or fragment, UniProt P54687 1-197)
chain: MKDCSNGCSAECTGEGGSKEVVGTFKAKDLIVTPATILKEKPDPNNLVFGTVFTDHMLTVEWSSEFGWEKPHIKPLQNLSLHPGSSALHYAVELFEGLKAFRGVDNKIRLFQPNLNMDRMYRSAVRATLPVFDKEELLECIQQLVKLDQEWVPYSTSASLYIRPTFIGTEPSLGVKKPTKALLFVLLSPVGPYFSSG
- binding [6]: no binding
- binding [7]: no binding

Continued, values first:

- binding [1]: binds
Molecule: DNA-PKcs, endogenous in CCRF-CEM T-ALL cells (from UniProt P78527 1-4128)

- binding [3]: binds
Molecule: HA-tagged KU70 C-terminal (aa 501-609) (from UniProt P12956 501-609) (domain or fragment)

- binding [3]: binds
Molecule: HA-tagged KU70 Ku domain (aa 351-500) (from UniProt P12956 351-500) (domain or fragment)

- binding [5]: binds weakly
- binding [1]: binds
Molecule: KU70, endogenously expressed in CCRF-CEM T-ALL cells (from UniProt P12956 1-609)

- binding [1]: binds
Molecule: KU80, endogenously expressed in CCRF-CEM T-ALL cells (from UniProt P13010 1-732)
